Assay results from PubChem BioAssay AID1159614 (National Center for Advancing Translational Sciences (NCATS), 2016).
Hit rate of the full screen: of about 45,000 compounds, about 65 (0.1%) were called active. Calls come from the whole dose curve; as a rule, active = well fitted activation curve with a large enough effect; inconclusive = small, poorly fitted or top-dose-only effect; inactive = no such curve, though single readings can be large or run the other way. Some of the results follow.

What follows are compounds tested against Galactocerebrosidase (Homo sapiens) (UniProt P54803) (assay: A Novel Cell-Based Assay to Identify Small Molecules for B -Galactocerebrosidase). Settings: 145M-Twi-hGALC-G270D cells (Twitcher mouse brain line with human GALC G270D), HMU-beta-Gal fluorescence, 48 h; series mostly up to 57.5 µM; activation: at the top concentration.
Sequence of UniProt P54803 (P54803 whole entry, looked up): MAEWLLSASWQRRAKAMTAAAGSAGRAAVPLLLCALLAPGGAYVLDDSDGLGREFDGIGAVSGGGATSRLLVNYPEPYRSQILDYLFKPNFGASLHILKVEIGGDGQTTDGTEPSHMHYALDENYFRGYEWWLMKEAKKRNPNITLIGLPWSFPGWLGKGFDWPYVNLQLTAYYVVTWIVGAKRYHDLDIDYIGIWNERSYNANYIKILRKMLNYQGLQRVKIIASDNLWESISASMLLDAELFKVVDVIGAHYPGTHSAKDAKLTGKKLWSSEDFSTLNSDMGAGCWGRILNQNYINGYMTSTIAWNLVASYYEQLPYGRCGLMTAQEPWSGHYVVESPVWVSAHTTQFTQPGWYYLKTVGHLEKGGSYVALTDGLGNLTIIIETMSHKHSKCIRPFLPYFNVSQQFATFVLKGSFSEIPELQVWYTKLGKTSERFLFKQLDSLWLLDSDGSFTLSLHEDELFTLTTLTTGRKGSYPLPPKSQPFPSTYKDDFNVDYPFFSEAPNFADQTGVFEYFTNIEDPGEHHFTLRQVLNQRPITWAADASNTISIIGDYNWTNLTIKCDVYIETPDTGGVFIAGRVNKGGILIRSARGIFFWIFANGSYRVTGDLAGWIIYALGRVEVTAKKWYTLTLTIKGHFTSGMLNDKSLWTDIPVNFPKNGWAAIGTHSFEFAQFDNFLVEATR
Summary of the method: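 Brain-derived Twitcher mouse 145M-Twi cells stably expressing human GALC-G270D or wild-type GALC, treated live, then residual GALC activity read by fluorescence of HMU-b-Gal substrate (0.1 mM final) in citrate-phosphate buffer pH 5.2 with sodium taurocholate. Signal increase indicates enhancement.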
Note: 0% is about no effect; nearly all actives have a fitted effect of over 65% in size.

activation, inactive:
Oc1c(C(c2ccccc2F)N2CCCCC2)sc2nc(-c3ccco3)nn12 (stereo not drawn) -5.12%
Cc1cc(C)cc(NC(=O)CCCN2C(=O)COc3ccc(C)cc32)c1 -1.94%
O=C(COc1ccc([N+](=O)[O-])cc1)NCC1(N2CCOCC2)CCCCC1 -23%
COc1ccc(C)cc1NC(=O)C1CCN(S(=O)(=O)c2ccc3[nH]c4c(c3c2)CCCCC4)CC1 -12.2%
Nc1cc(=O)nc(SCC(=O)Nc2ccc(F)cc2)n1-c1ccccc1Cl -17.1%
Cc1nc2sccn2c(=O)c1CCN1CCC(=C(c2ccc(F)cc2)c2ccc(F)cc2)CC1 -15.4%
COc1ccc(-n2ncc(C(=O)N3CCN(c4ncccn4)CC3)c2C2CCN(C(=O)OC(C)(C)C)CC2)cc1 3.57%
Cc1ccccc1Nc1c(-c2ccc(Cl)s2)nc2c(C)cccn12 -33.6%
O=C(CCc1cn(Cc2ccccc2Cl)c2ccccc12)NC1CCCCC1 0.108%
Cc1ccc(NC(=O)c2cn3c4c(ccc(Cl)c4c2=O)OC(C)C3)c(C)c1 (stereo not drawn) -12%
CC(C)CC(=O)Nc1ccc(S(=O)(=O)Nc2cc3c(cc2N2CCOCC2)n(C)c(=O)c(=O)n3C)cc1 -9.69%
CC(C)c1ccc(NC(=O)C2CCN(c3nc(-c4ccc(C(C)C)cc4)no3)CC2)cc1 -32.3%
CCCCc1nc2ccccc2n2c(-c3ccc(OC)cc3)c3c(=O)n(C)c(=O)n(C)c3c12 -8.23%
Cc1c(C(=O)N2CCC(C)CC2)c(S(=O)(=O)NCc2ccc(Br)cc2)c(C)n1C -4.91%
O=C(Nc1ccc2c(c1)CCCN2C(=O)c1cccs1)c1c(F)cccc1F 5.6%
CC(C)c1ccc(NC(=O)c2ccc3c(c2)CCCN3S(C)(=O)=O)cc1 -26.4%
C[C@H](CCC(=O)O)[C@H]1CC[C@H]2[C@@H]3C(=O)C[C@@H]4CC(=O)CC[C@]4(C)[C@H]3CC(=O)[C@]12C -14.2%
CCOc1ccccc1NC(=O)Cn1c(=O)n(CCCC(=O)NCCc2ccc(C)cc2)c(=O)c2ccccc21 -11.7%
COc1ccc(-c2c(C)c3cc(OC(=O)N4CCOCC4)ccc3oc2=O)cc1 -13.5%
Cc1ccc(N2CC(NC(=O)c3ccc(S(=O)(=O)N4CCCC4)cc3)CC2=O)cc1 (stereo not drawn) -9.39%
CC(C)(C)OC(=O)N1CCC(c2c(C(=O)NCCCN3CCc4ccccc4C3)cnn2-c2ccccc2)CC1 -20.7%
CCc1ccc(CNC(=O)CN(c2ccc(C)cc2)S(=O)(=O)N(C)C)cc1 -33.2%
N#Cc1c(-n2ncnc2-c2ccc(Br)cc2)sc2c1CCCCC2 -17.6%
CSc1ccc(CNC(=O)C2CCN(c3nnc(-n4cccc4CNc4ccc(C)cc4)s3)CC2)cc1 -26.5%
COc1ccc(OC)c(CCNC(=O)C2CCN(c3ncnc4c3nc3n4CCCCC3)CC2)c1 1.66%
O=C(Cn1cc(SCc2ccccc2)c2ccccc21)N1CCCCC1 1.62%
COc1ccc(-c2nc(C)c(CCNC(=O)C(=O)Nc3c(C)cccc3C)s2)cc1OC -28.7%
Nc1nc(N)c(S(=O)(=O)c2ccccc2)c(Nc2ccc(Br)cc2)n1 -28.7%
COc1cccc(-c2cc(C(F)(F)F)nc(-n3nc(C)c(Br)c3C)n2)c1 -13.4%
COc1ccc(C(=O)NCC(c2cccnc2)N2CCN(c3ccc(F)cc3)CC2)cc1 (stereo not drawn) -15.9%
O=C(NCC(c1ccc(Cl)cc1)N1CCCCC1)c1ccc(F)cc1 (stereo not drawn) -13.1%
Cc1cccc(NC(=O)C(=O)c2cc(C)n(-c3ccccc3)c2C)c1C -19.8%
CCOc1cccc2cc(-c3nc4sc(C(=O)Nc5ccc(C)cc5)c(C)c4c(=O)[nH]3)c(=O)oc12 -13.3%
COc1ccccc1CNC(=O)c1cccn1-c1nnc(N2CCCC2)s1 -11.7%
Cc1cccc(NC(=O)Cn2nc(-c3ccc(Cl)cc3)c3ccccc3c2=O)c1 -13%
Cc1ccc(-n2c(SCc3ccccc3F)nc3[nH]ncc3c2=O)cc1C -13.9%
O=C(CSc1ccc2nc(-c3ccccc3)cn2n1)Nc1ccccc1C(F)(F)F -5.05%
Cc1cccc(NC(=O)CSc2nc3c(c(=O)[nH]2)CN(Cc2ccc4c(c2)OCO4)CC3)c1C -20.9%
CC(=O)c1cc(-c2ccccc2)n(CC(=O)NC2CCCCCC2)c1C -15.7%
CN(C1CCCCC1)S(=O)(=O)c1ccc(C(=O)Nc2sc3c(c2C(N)=O)CC(C)(C)NC3(C)C)cc1 -31.1%
COc1ccc(N2CCN(C(=O)CSCc3nc(-c4ccccc4Cl)oc3C)CC2)cc1 7.64%
CCc1nc(-c2cc(S(=O)(=O)N3CCN(c4ccc(F)cc4)CC3)ccc2OC)no1 -10.2%
O=C(NCCc1ccc(Cl)cc1)c1cccn1-c1nnc(N2CCCCC2)s1 -10.9%
Cc1cc(O)c(C(c2cccc(F)c2)N2CCC(C)CC2)c(=O)n1Cc1ccco1 (stereo not drawn) -14.3%
O=C(Cn1c(=O)n(Cc2cccs2)c(=O)c2cccnc21)Nc1ccccc1F -15.3%
CCOC(=O)N1CCc2c(sc3c2c(=O)n(Cc2ccccc2)c(=O)n3CC(=O)Nc2c(C)cccc2C)C1 -22.8%
O=C(NCc1cccc(F)c1)c1ccc(CS(=O)c2ccccc2Cl)o1 (stereo not drawn) 8.32%
Cn1c(=O)c(=O)n(C)c2cc(S(=O)(=O)N3CCN(c4ccccc4F)CC3)ccc21 -3.55%
CCc1ccc(-n2c(=O)c3cccnc3n2CC(=O)NCc2ccc(F)cc2)cc1 -21.8%
Cc1cccc(C)c1OCC(=O)Nc1nonc1-c1ccc(Br)cc1 -11.1%
Cc1ccc(C(=O)Nc2ccc(-n3c(C)nc4ccccc4c3=O)cc2)cc1[N+](=O)[O-] -12.3%
COc1ccc(OC)c(NC(=O)Cn2c(=O)oc3cc(S(=O)(=O)NCc4ccccc4)ccc32)c1 -10.8%
O=C(NCC12CC3CC(CC(C3)C1)C2)c1cc2nc(-c3ccc(Cl)cc3)cc(C(F)(F)F)n2n1 -1.61%
O=C(Nc1nc2n(n1)C(c1ccc(F)cc1)C=C(c1ccc(Cl)cc1)N2)c1ccco1 (stereo not drawn) -6.03%
CCOC(=O)c1ccc(N2C(=O)c3n[nH]c(-c4cccs4)c3C2c2ccc(O)c(OC)c2)cc1 (stereo not drawn) -9.82%
CCN(C(=O)CCS(=O)(=O)c1cccc2nsnc12)c1cccc(C)c1 -11.4%
CCN(C(=O)c1cc2c(s1)-c1c(C)cccc1OC2)c1cc(C)ccc1C -14.5%
CCOc1ccc2oc(=O)cc(CN3CCN(c4ccc(OC)cc4)CC3)c2c1 0.868%
COc1ccc(-n2c(=O)c3ccccc3n(Cc3ccc(F)cc3Cl)c2=O)cc1OC -6.76%
Clc1cccc(-c2nnc(CN3CCN(c4ccccn4)CC3)o2)c1 -29.6%
COc1ccc(NC(=O)C(CC(C)C)NC(=O)C2CCCCC2)c(OC)c1 (stereo not drawn) -6.22%
CCc1nc2ccc(C(=O)NCCc3ccc(SC)cc3)cc2nc1CC -19.9%
Cc1cc(S(=O)(=O)Nc2cc3c(cc2N2CCOCC2)n(C)c(=O)n3C)ccc1F -8.05%
CCOc1ccc(CNC(=O)C2CCN(C3=NS(=O)(=O)C(c4ccc(C)cc4)=C3CC)CC2)cc1 -1.86%
COc1cc(NC(=O)c2cc(-c3ccccc3O)no2)cc(OC)c1OC -10.5%
CC(=O)Nc1nonc1-c1nnc(SCC(=O)Nc2ccccc2Cl)n1C -16%
COc1ccc(C2CC(=O)c3cc(-c4nc(-c5ccc(Cl)cc5)cs4)c(=O)[nH]c3C2)cc1 (stereo not drawn) -14.5%
COc1ccc(NC(=O)C2CCN(C(=O)c3sc4nc[nH]c(=O)c4c3C)CC2)c(OC)c1 -2.22%
Cc1cccc(N2CCN(c3nc4ccccc4c4nc(-c5ccccc5)nn34)CC2)c1C -20.3%
CC(=O)OCc1cnc(C)c2oc(=O)c(C(=O)Nc3ccc(F)cc3C)cc12 -2.12%
CCN(CC)S(=O)(=O)c1ccc2c(c1)N(CC(=O)N1CCN(c3cc(Cl)ccc3C)CC1)C(=O)CO2 -11.9%
CCc1ccccc1N1CC(c2nnc(NC(=O)c3ccco3)s2)CC1=O (stereo not drawn) -9.31%
CCOc1ccccc1NC(=O)CSC1=Nc2ccccc2C2=NC(CC(=O)NC3CCCCC3)C(=O)N12 (stereo not drawn) -17.4%
COc1ccc(OC)c(NC(=O)CSC2=Nc3ccccc3C3=NC(CCC(=O)NCc4ccco4)C(=O)N23)c1 (stereo not drawn) -4.59%
CN(C)S(=O)(=O)c1ccc2c(c1)c(=O)c(C(=O)N1CCN(c3cccc(Cl)c3)CC1)cn2C -19.1%
O=S1(=O)c2ccccc2N(Cc2ccc(Cl)cc2F)c2ccccc21 -7.16%
CCOC(=O)c1ccc(NC(=O)CN(c2ccc(C)cc2)S(=O)(=O)c2ccc(OC)cc2)cc1 -16.2%
CCC(=O)Nc1nnc(S(=O)(=O)N(C)Cc2ccc(Cl)cc2)s1 -6.94%
CCC(Sc1nc2cc(OC)c(OC)cc2c(=O)n1Cc1ccc(Cl)cc1)C(=O)NCCOC (stereo not drawn) -11.2%
CCC(CC)C(=O)Nc1c(C(=O)N2CCN(c3ccccc3F)CC2)oc2ccccc12 -36.4%
Cc1cc(NC(=O)c2cccnc2)cc(-c2nc3cc(Cl)ccc3o2)c1O -9.97%
COc1ccc(CCNC(=O)CN(c2ccc(C)cc2)S(=O)(=O)c2ccc(OC)cc2)cc1 -14%
COc1ccc(N2CCN(CCCNC(=O)Nc3ccccc3Cl)CC2)cc1 -11.7%
CCOc1ccc(-c2nc3c(c(SCC(=O)N4CCCCC4)n2)Cc2cc(C)ccc2O3)cc1 -21%
CCOc1ccc(CN2C(=O)c3ccccc3Sc3ccc(C(=O)N4CCN(C)CC4)cc32)cc1 -6.63%
O=C(NC1CC(=O)N(c2ccccc2)C1)c1ccc(S(=O)(=O)N2CCOCC2)cc1 (stereo not drawn) -6.78%
Brc1ccc(-c2ccc(CNCCSc3nnnn3-c3ccccc3)o2)cc1 -9.86%
CCOc1ccc(-n2nc(CO)c(C(=O)NCc3ccc(Cl)cc3)n2)cc1 -8.04%
COc1ccc(Br)c2c1-c1nc(NC(=O)c3cccc(C)c3)sc1C2 5.24%
Cc1ccc(-c2nnc(SCCOc3ccccc3)o2)cc1 -11.1%
CC1CCN(C(=O)CSc2c3c(nc4cc(Cl)ccc24)CCCC3)CC1 -6.87%
COc1ccc(OC)c(NC(=O)CSc2n[nH]c(-c3ccccc3Cl)n2)c1 -9.92%
c1ccc(-c2cn(-c3ccccc3)c3ncnc(N4CCN(c5ccccc5)CC4)c23)cc1 -11.7%
